Whole data set: some 33,000 sequences, median “E-score (-0.5 to 0.5)” near -0.01, cut for the highest 2% near 0.26. This is one part of the list.
The sequences below were run against Ste12 (UniProt P13574) (assay: PBM E-score (8-mer binding enrichment) (E-score (-0.5 to 0.5)); higher = stronger / more preferred TF binding; most listed sequences are background and not binding sites). Conditions: protein concentration: 200 nM; construct: GST-DNA-binding domain.
How it was run: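 For each ungapped eight-base word taken together with its reverse complement, the Universal PBM Analysis Suite assigned an E-score. Binding data came from GST-tagged yeast transcription factors, applied at about 100-200 nM, on universal all-10-mer Agilent arrays made double-stranded by primer extension. Fluorescent anti-GST marked bound protein, and scans were normalised with masliner.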

| Sequence | PBM E-score |
| --- | --- |
| TGAGAGCA | -0.0133 |
| ACAGCGAA | 0.0637 |
| TGCCCCCA | -0.216 |
| CCAGTTGC | -0.119 |
| AACGAACC | 0.0385 |
| TACAGTCA | 0.0395 |
| CCCCTCCG | 0.171 |
| AACCAATA | 0.195 |
| AAGTGTTG | 0.118 |
| CCCCGGTC | -0.127 |
| ACGAAGAC | -0.102 |
| CGCTCTGA | 0.0576 |
| GATCCATC | -0.124 |
| CATTGGGA | -0.0909 |
| AATCAATA | 0.131 |
| ACCGTTCG | -0.118 |
| CATCAGCA | 0.123 |
| CGTGGCTA | -0.199 |
| ATGTTCGC | -0.114 |
| AAAGCGGT | 0.0779 |
| AGGTCCAC | -0.235 |
| GATCTCTA | -0.105 |
| CCTTCGAC | -0.0226 |
| ACTTAACG | -0.119 |
| CACGCTGC | -0.176 |

| Sequence | PBM E-score |
| --- | --- |
| CAAGAGGC | -0.159 |
| CCTGATAC | 0.226 |
| GAGCGGCC | -0.157 |
| ACAAGCGA | 0.0432 |
| AAAATAGT | 0.0608 |
| ATCTCGTC | -0.0888 |
| CCACTGCG | -0.0201 |
| AGCCCAAG | -0.131 |
| CAGTGTTC | 0.00667 |
| AAATCTGT | 0.167 |
| AAATCTAC | 0.151 |
| GCTGCCTA | -0.0571 |
| ACGGGTGC | -0.14 |
| CGGTAGTA | -0.144 |
| CCAGTCTA | -0.246 |
| GCTTGTGA | -0.0847 |
| CAATTATA | 0.139 |
| CGCCTTTA | -0.0312 |
| ACACCTAG | -0.129 |
| CGGCACGA | -0.0366 |
| GCGTGCTA | -0.297 |
| ATAGATGG | -0.116 |
| CTGCTCTA | -0.0821 |
| CATGTTCC | -0.0468 |
| CACCTATG | -0.0896 |

| Sequence | PBM E-score |
| --- | --- |
| ACCTGTCA | 0.0912 |
| GGGAACGA | -0.0559 |
| AGTCTTCG | -0.111 |
| AATCGGAT | 0.13 |
| CCAGTCGA | 0.042 |
| ACGGTTGA | 0.0194 |
| AGTACCCG | 0.0288 |
| AAAATTCA | 0.212 |
| CAAAGGTC | -0.187 |
| GATCTACA | -0.101 |
| ACAGACCT | 0.079 |
| ATCGAGCG | 0.0436 |
| ACCCTGGA | 0.0722 |
| AGGGCAGA | -0.0685 |
| TCTACCAA | -0.128 |
| GGTTGTTA | 0.253 |
| CGAACCAG | -0.102 |
| AATGCAAT | -0.183 |
| CCCTGTCA | -0.0927 |
| GACTGGAA | -0.0552 |
| AGTAAGAT | 0.0911 |
| AACTCTCA | 0.00857 |
| CTCCTGGC | -0.0305 |
| AAATAGTG | 0.152 |
| CCCACAAA | 0.205 |

| Sequence | PBM E-score |
| --- | --- |
| CTTACGGA | -0.176 |
| CGGAGAAG | -0.00086 |
| GGGTTGGA | -0.00521 |
| CATCAAAC | 0.168 |
| CAGTGGGA | -0.0936 |
| AAAGTAAC | 0.181 |
| ACCTCTAG | -0.0158 |
| AGTGAATA | -0.0899 |
| GGCGCAAC | 0.0024 |
| AGTAATAC | 0.00891 |
| CGGCTGGA | -0.0994 |
| ACGCCCAA | 0.0871 |
| ACAAAGTA | 0.0483 |
| AGTACATC | -0.0599 |
| AACACACC | 0.143 |
| ATATTGCC | 0.0991 |
| AGGCGCCC | -0.194 |
| CGACAGTA | -0.0694 |
| ATAGACCA | -0.0601 |
| TCCCCAGA | -0.179 |
| ATCACCGA | 0.0751 |
| GCGAGTAA | 0.0934 |
| TAAGTATA | 0.0848 |
| GGCACCAC | -0.0345 |
| AATTCCCT | 0.0616 |

| Sequence | PBM E-score |
| --- | --- |
| CATTGCGC | -0.1 |
| CAAGCTCC | -0.106 |
| AACTGTGC | -0.158 |
| CCCACGGG | -0.119 |
| ACCAGTGC | -0.233 |
| AAGTGAGT | -0.0575 |
| CGGTAAGA | -0.177 |
| GTGCACTA | 0.0979 |
| AAGGAAGG | -0.228 |
| GCTGTCAA | -0.159 |
| TCAGAACA | 0.0564 |
| CACTAGTC | -0.137 |
| CCTACATA | 0.112 |
| GGGTCTGA | 0.0492 |
| AGTCGAAA | 0.00195 |
| AGGTTCTG | -0.159 |
| GTGGCATA | 0.078 |
| ACTTCTAA | 0.0133 |
| GCCCGTCC | -0.087 |
| TACTTGCA | 0.0715 |
| ACGGTACG | -0.135 |
| TGCCAGAA | 0.117 |
| GAGAAGAA | 0.0157 |
| ACTGAGAG | 0.0683 |
| AGCGATTG | -0.133 |

| Sequence | PBM E-score |
| --- | --- |
| ACACTGCT | -0.0892 |
| CTCTCCGA | -0.0401 |
| GTACCCGA | -0.107 |
| CTAAATCA | 0.109 |
| AGAAATAG | -0.00818 |
| GATACACA | 0.037 |
| CATTTTGG | 0.0729 |
| CACAGACG | -0.174 |
| AGGACATA | -0.0599 |
| GACATAAA | 0.251 |
| GTCCTGTA | -0.0649 |
| GTATCCTA | -0.188 |
| ACTGGACT | -0.0549 |
| GGAACTCC | 0.0773 |
| TACATGAA | 0.201 |
| CACCTCGG | 0.0725 |
| ATATGCCG | 0.0198 |
| AGTAGCTC | -0.169 |
| GACAGTCA | -0.192 |
| TAGTTTCA | 0.36 |
| GTAAATAA | 0.168 |
| ATGTGAGC | -0.12 |
| TCAGGTCA | -0.015 |
| AAGATAGC | -0.0372 |
| AAGCTTTG | 0.0106 |

| Sequence | PBM E-score |
| --- | --- |
| ACTCGTGA | 0.0781 |
| CGTCCCGC | 0.0259 |
| AACGTTCG | 0.104 |
| CACCTGCG | -0.0663 |
| ATATTGGC | 0.00373 |
| AAGCACCT | -0.154 |
| GCATAAAA | 0.188 |
| CCGGGTGA | 0.00512 |
| AAGTGCGT | -0.15 |
| CTCGGCAG | -0.0413 |
| GTATTCAA | 0.116 |
| AACAGAAT | 0.0107 |
| ACGGAGCG | 0.0287 |
| ACTTTAAT | 0.263 |
| ATGCAGTA | 0.037 |
| ATCCGCTG | -0.154 |
| AACTTCCG | 0.0772 |
| GAAAGAGA | 0.0789 |
| ACCGTCCC | -0.0797 |
| CTTCTAGA | 0.0489 |
| ACCCCGGA | -0.00092 |
| TGTACACA | 0.0305 |
